Source: publication PMC6919601, “Identification of Plasmodium dipeptidyl aminopeptidase allosteric inhibitors by high throughput screening” (PLoS ONE, 2019)
Screen size: about 110,000 compounds; about 230 (0.21%) showed an effect of 50% or more. The list shows a part of the results.

target: DPAP1 (Plasmodium falciparum, UniProt Q8IIJ9); assay: primary screen, percent inhibition; read by cleavage of a fluorogenic dipeptide substrate; higher = more effect of the substance; set-up: species or system P. falciparum D10 trophozoite lysates; single well
Sequence (Q8IIJ9 whole entry, looked up): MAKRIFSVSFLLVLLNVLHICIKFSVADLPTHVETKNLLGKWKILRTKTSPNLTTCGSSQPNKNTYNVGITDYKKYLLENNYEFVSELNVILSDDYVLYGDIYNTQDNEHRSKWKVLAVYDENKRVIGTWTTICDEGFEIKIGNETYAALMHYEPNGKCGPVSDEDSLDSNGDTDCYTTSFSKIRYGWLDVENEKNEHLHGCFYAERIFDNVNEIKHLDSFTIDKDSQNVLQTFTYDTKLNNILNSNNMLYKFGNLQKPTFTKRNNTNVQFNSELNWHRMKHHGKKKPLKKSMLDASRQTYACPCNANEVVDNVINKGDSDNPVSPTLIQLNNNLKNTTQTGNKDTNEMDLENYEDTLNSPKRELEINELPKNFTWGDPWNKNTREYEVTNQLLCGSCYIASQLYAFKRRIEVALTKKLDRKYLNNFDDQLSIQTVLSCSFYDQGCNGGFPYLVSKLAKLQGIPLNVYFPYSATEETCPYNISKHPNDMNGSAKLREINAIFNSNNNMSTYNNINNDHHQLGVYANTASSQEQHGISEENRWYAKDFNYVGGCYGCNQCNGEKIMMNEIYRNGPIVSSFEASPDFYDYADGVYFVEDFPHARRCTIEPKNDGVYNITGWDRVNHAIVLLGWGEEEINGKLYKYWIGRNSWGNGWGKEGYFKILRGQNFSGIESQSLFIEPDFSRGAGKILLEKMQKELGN
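Further: 30 min substrate incubation versus DMSO and 10 µM JCP410 controls.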

Structure (SMILES)	% Inhibition @ 10 uM
COc1ccc(S(=O)(=O)Nc2sc3c(c2C(N)=O)CCC3)cc1OC	5.11%
C=C(C)Cn1c(COc2ccc(Cl)cc2)nnc1SCC(=O)O	-7.65%
CCOc1ccc(C2=C(C)SC(/N=C/c3ccco3)=NN2)cc1	-7.59%
Cc1ccc(C(=O)Nc2cnc3ccccn3c2=O)cc1	-5.2%
CC(C)=C(NC(=O)c1ccccc1)C(=O)Nc1ccc(C(=O)O)cc1	-4.43%
CCOc1ccc(-c2[nH]nc3c2C(c2cccnc2)C(C#N)=C(N)O3)c(OCC)c1 (stereo not drawn)	4.3%
CC1=C(C(=O)Nc2ccc(Cl)cc2)C(c2cccc(F)c2)n2nc(CCCO)nc2N1 (stereo not drawn)	3.86%
O=C(Nc1cccc2c1CCCC2)c1ccc(Br)cc1	-7.01%
O=C(NCc1ccccc1)c1cc(-c2ccc(Cl)c(Cl)c2)on1	-7.15%
COC(=O)c1sccc1NC(=O)c1noc2c1COc1ccccc1-2	1.68%
O=C(c1ccccc1Cl)N(C1CCCCC1)C1CCCCC1	6.8%
COc1cc(-c2cc(NC(=O)c3cc4c(=O)oc5ccc(C)cc5c4s3)on2)cc(OC)c1OC	5.21%
COc1ccc(-c2nn(-c3nc4ccccc4s3)c(O)c2/C=N/CCN2CCOCC2)cc1	0.884%
CC(=O)Nc1ccc2oc(-c3ccc(Br)c(C)c3)nc2c1	-0.511%
Cc1cc(C)n2nc(CC(=O)NC3CCCCCCC3)nc2n1	4.47%
CCN(CC)CCCNC(=O)Cn1ncc2c1-c1ccccc1OC2	4.88%
CC(=O)OCc1cc(=O)n(C)c(=O)n1C	-2.12%
CC(=O)c1ccc(NC(=O)C2C(C)(C)C2(C)C)cc1	-3.69%
Cc1nn(C)cc1CNC(=O)c1cc2nc(-c3cccs3)cc(C(F)(F)F)n2n1	0.206%
CC1CCN(S(=O)(=O)c2cn(CC(=O)NC3CCCC(C)C3C)c(=O)c3ccccc23)CC1 (stereo not drawn)	0.559%
CC(C)(C)C#CC(=O)c1ccc(Cl)cc1	-2.06%
CC(C)C(=O)Nc1sc2c(c1C(=O)O)CC(C)(C)OC2	-7.98%
COc1ccc(-c2c3c(=O)n(C)c(=O)n(C)c3cn2Cc2ccccc2)cc1	-0.603%
Sc1nc(Nn2cnnc2)c2ccccc2n1	0.379%
NC(=O)c1c(NC(=O)C2CCC2)sc2c1CCCCC2	7.35%

Structure (SMILES)	% Inhibition @ 10 uM
CNc1cc(=O)n(C2CCCCC2)c(=O)n1C1CCCCC1	-4.69%
CC1(C)CC(CN)(c2ccccc2)CCO1 (stereo not drawn)	2.4%
COc1ccc(-c2nc(-c3ccc(OC)cc3)c(CC(=O)O)s2)cc1	9.95%
COc1ccc(-c2csc(Nc3ccc(N)cc3)n2)cc1	-6.43%
Clc1ccc(N2CCN(Cc3ccc4ccccc4c3)CC2)cc1	-3.65%
COc1cc(C(=O)NC2=NC(=O)CC(c3ccc(Cl)cc3)N2)cc(OC)c1OC (stereo not drawn)	1.66%
Cc1cc(C(=O)NCC(N)=O)c2c(C)nn(-c3ccccc3)c2n1	6.84%
Cc1c(C)n(Cc2ccccc2)c2ccc(C(=O)N3CCC4(CC3)OCCO4)cc12	4.11%
Cc1nn(-c2ccc(F)cc2)c(O)c1/C=N/c1ccc(Cl)c(C(=O)O)c1	-2.16%
COc1ccc(C(=O)Nc2c(C)cc(C)cc2C)cc1OC	2.91%
COc1ccc(CCNC(=O)C2=C(C)C(=O)OC23CCC(C)CC3)c(OC)c1 (stereo not drawn)	1.55%
CCN(CC)c1ccc2cc3c(oc2c1)c(C#N)c(=N)n1c2ccccc2nc31	0.722%
CC1(C)CC(=O)C(/C=N/CCN2CCN(C(=O)c3ccc(F)cc3)CC2)=C(O)C1	-3.9%
COc1cc(F)c(C[C@H](NC(=O)c2ccc(-c3ccccc3Cl)nc2)C(=O)NCC#N)c(F)c1	1.35%
CSc1ncc(C(=O)NC2CCCCCC2)c(C)n1	-0.571%
COc1ccc(C(=O)Nc2ccc(S(=O)(=O)Nc3ccc(C)cc3C)cc2)cc1	-0.891%
COc1ccc(-c2cc(C(=O)N3CCCC3C(=O)O)c(C)o2)cc1OC (stereo not drawn)	2.99%
CCn1c2ccccc2c2cc(CNCCc3ccc(Cl)cc3)ccc21	0.219%
COCCCNC(=O)CSc1nc2c(sc3ccccc32)c(=O)n1CCCOC(C)C	6.05%
CCCc1nc2c(c3c1[nH]c1ccccc13)C(=O)CC(C)(C)C2	-3.74%
COc1cccc(CNCc2ccc(SC)cc2)c1OC	-2.87%
CCN(CC)c1nc2c(S(=O)(=O)c3ccc(C(C)C)cc3)nnn2c2ccsc12	-2.26%
O=C(C1CCCN(c2ncnc3c2nc2n3CCCCC2)C1)N1CCc2ccccc2C1 (stereo not drawn)	6.99%
O=C(CN1C(=O)C2CC=CCC2C1=O)N1CCN(Cc2ccccc2)CC1 (stereo not drawn)	3.54%
O=C(CN1C(=O)c2cccc3cccc1c23)Nc1ccc(S(=O)(=O)Nc2cccc(Cl)c2)cc1	10.7%

Structure (SMILES)	% Inhibition @ 10 uM
COc1ccc(OCCOCCN2CCOCC2)cc1	-4.91%
Cc1nc(N2CCC(Cc3ccccc3)CC2)c2c(C)c(C)sc2n1	4.01%
Cc1ccc(CN(CC(=O)NC2CC2)S(=O)(=O)c2ccc(C)cc2)cc1	-3.21%
CC1CCCCN1C(=O)C1CCN(c2ncnc3c2nc2n3CCCCC2)CC1 (stereo not drawn)	1.43%
CCOc1cc2c(cc1OCC)C(c1c(O)cccc1OC)NCC2 (stereo not drawn)	-1.52%
COC(=O)c1sc2nc3n(c(=O)c2c1C)N=C(c1cccc(OC)c1)CS3	7.77%
CC1CN(C(C)C)C(C)CC1OC(=O)c1ccccc1 (stereo not drawn)	-0.597%
Cc1nc2cc(-c3ccccc3)nn2c(O)c1C	4.98%
COc1cc(C(=O)Nc2cccnc2)ccc1OCc1ccc(Cl)cc1	1.26%
O=[N+]([O-])c1ccc(-c2nc3ccccc3nc2-c2ccccc2)cc1	3.32%
CC1Cc2cc(/C=C3\N=C(c4ccccc4Cl)OC3=O)ccc2O1 (stereo not drawn)	4.54%
CCOC(=O)N1CCN(C(c2ccncc2)c2c(NC(=O)c3ccccc3)sc(C)c2C)CC1 (stereo not drawn)	-9.57%
O=C1CC(c2ccccc2)CC(=O)C1=CNCCN1CCN(C(=O)Cc2ccccc2)CC1 (stereo not drawn)	-5.34%
O=C(c1ccc(F)cc1)N1CCN(CCN2C(=O)c3cccc4cccc(c34)C2=O)CC1	4.49%
CC(C)(C)c1ccc2oc(-c3ccc(NC(=O)c4cccc5ccccc45)cc3)nc2c1	3.9%
COc1ccc(NC(=O)CSc2nc3nncc-3c(O)n2-c2ccccc2)cc1	-2.77%
O=C1CSC(c2ccc(Cl)cc2Cl)c2c(O)nn(C3CCCC3)c2N1 (stereo not drawn)	1.31%
N#CC1=C(N)OC2=C(C(=O)CCC2)C1c1cccc(Cl)c1Cl (stereo not drawn)	-5.74%
CN(C)CCCNC(=O)c1ccccc1Cl	-3.32%
COCCNC(=O)/C(C#N)=C/c1c(Oc2ccc(C(C)(C)C)cc2)nc2ccccn2c1=O	3.12%
COc1ccc(/C=C/C(=O)NCc2cccnc2)cc1S(=O)(=O)N1CCCCC1	4.67%
O=C(c1sc2cccc(Cl)c2c1Cl)N1CCOCC1	0.751%
CCOc1cc(CN2CC(C)OC(C)C2)ccc1OC (stereo not drawn)	-7.56%
O=C1/C(=C\c2ccc(Cl)cc2Cl)S(=O)(=O)c2ccccc21	-5.63%
O=C(Nc1ccc2oc(-c3ccc(Cl)cc3)nc2c1)c1ccco1	3.48%

Structure (SMILES)	% Inhibition @ 10 uM
O=C(CSc1nc2c(c(=O)n1CCc1ccccc1)SCC2)NCc1ccco1	5.8%
O=C(/C=C/c1cn(CC(O)CN2CCOCC2)c2ccccc12)c1ccc(Br)cc1 (stereo not drawn)	-5.36%
C=CCn1cnc2c(NCc3ccccc3)ncnc21	1.91%
COc1ccccc1C1CC2=NC(C)=C(C(=O)OCCOC(C)C)C(c3ccsc3)C2=C(O)C1 (stereo not drawn)	0.565%
Cc1nc(C)c(C(=O)Nc2nc(C)c(C)s2)s1	-0.946%
CCCCN(CCCC)c1ncnc2c1sc1nc3c(cc12)COC(C)(C)C3	6.91%
CCN(CC)C(=O)C1CCCN(Cc2ccc(-c3ccccc3)cc2)C1 (stereo not drawn)	4.67%
CCOC(=O)c1conc1-c1ccc(Cl)cc1	-1.54%
O=C(CSn1nnnc1-c1ccc(OC(F)(F)F)cc1)NCc1ccccc1	-6.28%
Cn1c(C(=O)NC2CCCCCC2)cc2sc(Cl)cc21	-12.6%
CCCOc1ccc2oc(=O)c3c(c2c1)CCCN3C(=O)CN1CCC(Cc2ccccc2)CC1	14.6%
Cc1ccc2cnn(CC(=O)NC3CCCCC3)c2c1	-2.88%
CC(=O)N1CCc2nc3sc(C(=O)NCCc4ccc(F)cc4)c(N)c3c(C(F)(F)F)c2C1	5.49%
Cn1nnnc1SCCNCc1ccccc1F	-3.49%
Cc1c(C(=O)N2CCN(C)CC2)[nH]c2ccc(OCc3ccccc3)cc12	-1.68%
CCc1ccc(-c2csc(NC(=O)C3C4CCC(C4)C3C(=O)O)n2)cc1 (stereo not drawn)	2.44%
CC1CCCC(C)N1CCNC(=O)Cn1nc(-c2ccccc2)ccc1=O (stereo not drawn)	5.16%
C=CCn1c(SCC(=O)Nc2ccc(OCC)cc2)nc2sc(C)c(C)c2c1=O	1.02%
CCOC(=O)c1[nH]c(C)c(C(=O)N(CC)CC)c1C	-1.66%
Cc1nn(C)cc1CNC(=O)COc1ccc(Cl)cc1Cl	-5.81%
Cc1ccc(S(=O)(=O)N2CC=C(C(=O)NCCC(C)C)CC2)cc1	-2.14%
CC(=O)C1=C(C)NC(SCC(=O)Nc2ccc(C(=O)O)cc2)=C(C#N)C1c1ccc(Cl)cc1 (stereo not drawn)	2.38%
Cc1[nH]nc(O)c1C(c1c(O)n[nH]c1C)c1c[nH]c2ccccc12	-6.24%
CN1CCC(N2CCN(c3ccc(Cl)cc3)CC2)CC1	-2.21%
